In paper PMC6919601, “Identification of Plasmodium dipeptidyl aminopeptidase allosteric inhibitors by high throughput screening” (PLoS ONE, 2019):
The whole screen tested about 110,000 compounds, of which about 230 (0.21%) showed an effect of 50% or more. The list shows a part of the results.

target: DPAP1 (Plasmodium falciparum, UniProt Q8IIJ9); experiment: primary screen, percent inhibition; read by cleavage of a fluorogenic dipeptide substrate; higher = more effect of the substance; parameters: species or system P. falciparum D10 trophozoite lysates; single well
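Note: 30 min substrate incubation versus DMSO and 10 µM JCP410 controls.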

DPAP1, sequence (Q8IIJ9 whole entry, looked up): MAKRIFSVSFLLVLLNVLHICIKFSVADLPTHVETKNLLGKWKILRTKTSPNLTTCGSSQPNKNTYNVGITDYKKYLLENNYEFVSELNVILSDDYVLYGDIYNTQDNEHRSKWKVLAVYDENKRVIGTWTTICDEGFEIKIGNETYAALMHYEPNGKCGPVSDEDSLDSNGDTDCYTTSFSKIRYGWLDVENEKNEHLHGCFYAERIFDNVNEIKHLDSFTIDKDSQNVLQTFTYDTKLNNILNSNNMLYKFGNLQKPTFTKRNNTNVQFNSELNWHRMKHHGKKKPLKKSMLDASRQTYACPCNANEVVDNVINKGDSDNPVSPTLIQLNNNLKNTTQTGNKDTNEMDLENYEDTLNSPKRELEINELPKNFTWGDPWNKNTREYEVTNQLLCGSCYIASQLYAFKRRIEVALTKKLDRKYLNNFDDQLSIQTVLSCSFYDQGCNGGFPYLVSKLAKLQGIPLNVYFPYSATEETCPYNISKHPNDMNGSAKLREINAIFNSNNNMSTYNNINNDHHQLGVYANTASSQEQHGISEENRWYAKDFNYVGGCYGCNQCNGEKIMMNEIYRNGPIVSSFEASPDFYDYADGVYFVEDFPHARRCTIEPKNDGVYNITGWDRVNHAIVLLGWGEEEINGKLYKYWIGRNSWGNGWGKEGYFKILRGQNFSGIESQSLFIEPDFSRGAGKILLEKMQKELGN

| Structure (SMILES) | % Inhibition @ 10 uM [%] |
| --- | --- |
| CC(CCc1ccccc1)NC(=O)C1CCN(C(=O)c2sccc2-n2cccc2)CC1 (centres unmarked) | 3.3 |
| C=CC1CN2CCC1CC2[C@@H](O)c1cnc2ccc(OC)cc2c1 (some centres unmarked) | 2.84 |
| OCCN(Cc1ccccc1)CC1CC2C=CC1C2 (centres unmarked) | -2.34 |
| CN(Cc1ccccc1)C1CC(=O)N(c2ccccc2)C1=O (centres unmarked) | 4.65 |
| O=C1S/C(=C/c2ccncc2)C(=O)N1Cc1ccccc1 | 15.2 |
| N/C(=C\C(=O)c1ccccc1O)C(F)(F)F | 3.39 |
| Cc1ccc(-c2nnc3sc(-c4cnccn4)nn23)cc1 | -4.02 |
| c1ccc(-c2cn(-c3nc(N4CCOCC4)nc(N4CCOCC4)n3)nn2)cc1 | 4.32 |
| COc1ccc(-c2ccccc2)cc1NC1CCCC(C)C1 (centres unmarked) | 1.57 |
| O=C1C2CCCCC2C(=O)N1c1ccc(N2C(=O)C3C4C=CC(C4)C3C2=O)cc1 (centres unmarked) | -2.09 |
| CCN(C(=O)CN1CCCCC1)C1(C)C(=O)c2ccccc2C1=O | 1.39 |
| COc1ccc(Cn2c(C(=O)O)c(CNCc3ccccc3Cl)c3ccc(OC)cc32)cc1 | 3.64 |
| O=C(c1cc(-c2ccc(F)cc2)on1)N1CCc2ccccc2C1 | -3.36 |
| O=C(CN1C(=O)C2C3C=CC(C3)C2C1=O)Nc1nc(-c2ccccc2)cs1 (centres unmarked) | 2.56 |
| CCCCNC(=O)CSc1nc2nnc(C)c-2c(N)n1-c1ccccc1Cl | -3.93 |
| COc1ccc(C(=O)CSc2ccc(-c3cccs3)nn2)cc1 | 0.304 |
| CCN1CC2(c3ccccc3)CN(CC)CC(c3ccccc3)(C1)C2=O | -6.25 |
| CCC(CC)C(=O)Nc1sc(C(=O)OC)c(C)c1C(=O)OC | -0.333 |
| CCOC(=O)c1oc2c(c1C)C(=O)CC(C)(C)C2 | 6.3 |
| COc1ccc(C(=O)c2oc3ccccc3c2NC(=O)COc2ccc(F)cc2)cc1 | 2.17 |
| Cc1ccc(CN(C(=O)NC2CCCC2)C2CCN(Cc3ccccc3)CC2)o1 | -3.32 |
| O=C(Cn1c(C(F)(F)F)nc2ccccc21)c1ccc(OC(F)F)cc1 | -5.6 |
| CCOCCCNC(=O)CCCn1c(=O)c2cccn2c2cccnc21 | 3.59 |
| CC(C)(C)c1c(O)nc(S)nc1O | -4.26 |
| COc1ccc(CNCCNC(=O)c2nonc2N)cc1OC | -3.5 |
| O=C(NCCN1CCOCC1)C1CC(=O)N(C2CCCCC2)C1 (centres unmarked) | -0.0542 |

| Structure (SMILES) | % Inhibition @ 10 uM [%] |
| --- | --- |
| COc1ccc(-n2c(C)cc(/C=C3/NC(=O)N(Cc4ccccc4F)C3=O)c2C)cc1 | -0.0626 |
| O=C1OC(/C=C/c2ccc(Cl)cc2Cl)=NC/1=C/c1ccc2c(c1)OCO2 | -4.73 |
| C[C@@H]1CC[C@@]2(NC1)OC1C[C@H]3C4CC=C5CC(O)CCC5(C)C4CCC3(C)C1[C@@H]2C (some centres unmarked) | 5.2 |
| CCOc1cc(/C=C2/SC(=O)N(C(C)C)C2=O)ccc1OCC(=O)O | 3.58 |
| COc1ccc(-c2cc(N)n(S(=O)(=O)c3ccc(C(C)(C)C)cc3)n2)cc1OC | -2.88 |
| CN1C(=O)C(=Cc2cc(Cl)cc(Cl)c2OCc2ccccc2)C(=O)N(C)C1=O | 18.2 |
| O=C1Nc2ccccc2SC1C1C(=O)Nc2ccccc21 (centres unmarked) | 3.57 |
| CN1C(=O)NC(=O)/C(=C/c2ccc(Br)s2)C1=O | 0.587 |
| O=C(Cc1ccccc1)Nc1ccc(-c2nc3ncccc3o2)cc1 | 4.84 |
| O=C1CC(c2cccc(Cl)c2)Sc2ccccc2N1 (centres unmarked) | -1.02 |
| Cc1cccc(-c2nc3c4ccccc4nc(NCCCOC(C)C)n3n2)c1 | -4.21 |
| CC(=O)Nc1ccc(CN2CC(C)OC(C)C2)cc1 (centres unmarked) | -1.41 |
| O=C(c1cc(-c2ccc(O)cc2)on1)N1CCCCCC1 | -4.07 |
| Nc1c(-c2nc(-c3ccc4c(c3)OCO4)cs2)c2ccccn2c1C(=O)c1ccc(F)cc1 | -0.671 |
| Cc1nn(-c2ccc(F)cc2)c(O)c1/C=N/c1ccc(O)cc1 | -2.56 |
| Cc1cc(C)c(S(=O)(=O)NCC(=O)NCCO)c(C)c1 | 0.931 |
| Brc1ccc(OCCCN2CCCC2)cc1 | -4.3 |
| COc1cc2c(cc1OC)C(COc1ccccc1OC)N(C(=O)Cc1cccs1)CC2 (centres unmarked) | 0.739 |
| O=C(Nc1cccc(C(F)(F)F)c1)c1ccc(Cl)cc1 | -5.57 |
| CC(C(=O)NCCN1CCCCCC1)n1ncn2cccc2c1=O (centres unmarked) | -0.385 |
| O=C(CSc1nc2ccccc2[nH]1)NCCCn1ccnc1 | 2.99 |
| COc1cccc(-c2cc(C(=O)N3CCC(N4CCCCC4)CC3)[nH]n2)c1 | 0.536 |
| Cn1cc(CCCC(=O)NCc2ccccc2Br)c2ccccc21 | 2.07 |
| Nn1c(SCC(=O)Nc2nccs2)nnc1-c1ccncc1 | -6.28 |
| CCCCN(C)C(=O)c1cn(C2CCCC2)c(=O)c2c1c1ccccc1n2C | -7.21 |
| CCCCSc1nnc2c(=O)[nH]c(=O)[nH]c2n1 | -2.92 |

| Structure (SMILES) | % Inhibition @ 10 uM [%] |
| --- | --- |
| CCC(C)(C)NC(=O)c1cc(S(=O)(=O)N2CCCCC2)c[nH]1 | 4.92 |
| Clc1ccc(OCCCCN2CCCC2)cc1 | -8.01 |
| COc1ccc(NS(=O)(=O)c2ccc(NC(=O)c3nn(C)c(C)c3Br)cc2)cc1 | 3.69 |
| Cc1ccc(-n2nnc(-c3nc(-c4ccncc4)no3)c2N)cc1 | -0.485 |
| CCCCCCN(CCCCCC)c1nc2ccccc2nc1NS(=O)(=O)c1ccccc1 | 7.66 |
| CC1=C(C(=O)Nc2ccc(Cl)cc2)C(c2ccc(Cl)cc2)NC(=O)N1 (centres unmarked) | -1.66 |
| O=C(Nc1nc(-c2ccc(Cl)cc2Cl)cs1)c1ccco1 | 5.29 |
| CN(CC(=O)NC1CCCc2ccccc21)S(=O)(=O)c1cccs1 (centres unmarked) | 3.5 |
| C/C(=N\CCCNC1CCCCC1)C1=C(O)CC(C)(C)CC1=O | -2.07 |
| Cc1cccc(CN2CCC(CNC(=O)c3cc4ccc5cccnc5c4[nH]3)CC2)c1 | 1.06 |
| C/C(=N\C(C)C)C1=C(O)CC(c2ccccc2)CC1=O (centres unmarked) | -5.34 |
| COc1cccc(CN(C)CCN(C)C)c1 | 5.43 |
| CSCC[C@@H](NC(=O)OCc1ccccc1)C(=O)NCC#N | 0.079 |
| CCCNC(=O)c1cccc(Cn2nc(C)c(Br)c2C)c1 | -0.598 |
| O=C(NCCN1CCN(S(=O)(=O)c2ccc(F)cc2)CC1)C(=O)NCc1ccccc1 | -2.32 |
| CC(C)C[C@H](NC(=O)c1sccc1Br)C(=O)NCC#N | -1.41 |
| N#CC1=C(N)Oc2cc(N)ccc2C1c1ccc(Br)s1 (centres unmarked) | 1.41 |
| O=C(Nc1ccccc1NC(=O)N1CCCCC1)c1ccc(C(F)(F)F)cc1 | -0.992 |
| O=C(O)c1cccc2c1NC(c1ccc(F)cc1)C1CC=CC21 (centres unmarked) | -5.23 |
| CC(=O)c1c(C(C)=O)c(C)n(Cc2ccco2)c1C | -0.173 |
| CC1(O)N(c2ccc(Cl)cc2)C(=O)OC12CCCCC2 (centres unmarked) | -3.26 |
| CC1=Cc2ccccc2C(C#N)N1C(=O)c1ccccc1 (centres unmarked) | 9.01 |
| O=C1C2C3C=CC(C3)C2C(=O)N1c1ccc(Br)cc1F (centres unmarked) | -3.18 |
| CCCN(CCC)C(=O)Cn1ncc2c(C)n(Cc3ccccc3)c(C)c2c1=O | -2.17 |
| Cc1sc(CN(C)C)cc1-c1ccccc1 | 2.7 |
| CCOC(=O)N1CCC(N(C)CCc2ccccc2)CC1 | 3.18 |

| Structure (SMILES) | % Inhibition @ 10 uM [%] |
| --- | --- |
| COCc1c(Br)c(C)nc2sc3c(=O)n(CCc4ccccc4)nnc3c12 | 4.13 |
| CCOc1nc(C)cc(COC)c1C(N)=O | -4.56 |
| O=C(O)c1cc(N2C(=O)C3C4C=CC(CC4)C3C2=O)ccc1Cl (centres unmarked) | 2.15 |
| COc1ccc(C(=O)CSc2nc(C)cc(C)c2C#N)cc1 | -1.37 |
| CC1CCN(C(=O)c2cc(S(=O)(=O)N3CCCCC3)c[nH]2)CC1 | 2.24 |
| Cc1ccc(C(=O)N/C(=C/c2ccccc2F)C(=O)N2CCNCC2)cc1 | -6.7 |
| Nc1c(C(=O)Nc2ccc(C(=O)O)cc2)sc2nc3c(cc12)CCCCC3 | 4.88 |
| CCOc1ccc2ncc(C(=O)c3ccccc3)c(N3CCOCC3)c2c1 | 1.31 |
| Cc1cccc(C)c1NC(=O)CN(C1CCCCC1)S(C)(=O)=O | 0.632 |
| Cc1ccc2onc(CNC(=O)N3CCC4(CC3)OCCO4)c2c1 | -5.23 |
| COc1cccc(C(=O)Nc2ccc3oc(-c4ccc(F)cc4)nc3c2)c1 | -1.79 |
| COc1ccc(CC(=O)N2CCN(C(=O)Cc3ccc(OC)cc3)CC2)cc1 | 0.583 |
| COc1ccc(CCNc2cc(C)nc3c(-c4ccc(OC)c(OC)c4)c(C)nn23)c(OC)c1 | -0.138 |
| CC1=CC(=O)C=C/C1=N/C(=N\S(=O)(=O)c1ccc(C)cc1)c1ccccc1 | -5.38 |
| CN1C(=O)C(=CNCCCN2CCCC2=O)C(=O)N(C)C1=O | -4.74 |
| Cn1c(=O)c2ncn(CC(=O)Nc3cc(C(C)(C)C)cc(Cl)c3O)c2n(C)c1=O | -5.03 |
| CCOc1ccc2nc(NC(=O)C3CCN(S(=O)(=O)c4cccs4)CC3)sc2c1 | -1.28 |
| COc1ccc(-c2cc(C)no2)cc1S(=O)(=O)Nc1cccnc1 | -5.87 |
| CCOc1ccc(-c2nc(C3COc4ccccc4O3)cs2)cc1 (centres unmarked) | -2.63 |
| O=C(C1CCN(c2ncnc3c2sc2cccc(F)c23)CC1)N1CCN(Cc2ccccc2)CC1 | -0.637 |
| CCc1nnc(NC(=O)CSc2nc(-c3cccs3)cc(C(F)(F)F)c2C#N)s1 | 9.42 |
| CN(CCC#N)C(=O)Cn1ncc2c1-c1ccccc1OC2 | 2.6 |
| CCCCOc1ccc(C(=O)N(CCCN(C)C)c2nc3c(OC)cccc3s2)cc1 | -2.41 |
